These results are taken from patent publication US20180086837A1 (Ablynx, published 2018).

In test [1] the target is human CXCR4 and human CD4 co-expressed on the same cell surface (human, UniProt P61073 1-352). The test is described as follows: cell-based or functional assay.
Test [2] has as its target T1, cynomolgus CXCR4 (cynomolgus, UniProt Q28474 1-352).
T1 construct: whole, on cells; also called cyno CXCR4
The test is described as follows: flow cytometry, transfected HEK293T cells, 10 nM, normalised to 12G5. In general terms: Flow cytometry measures light scatter and fluorescence of single cells or particles in a stream.

In test [3] the target is T2, hCXCR4-V196E (human, UniProt P61073 1-352).
T2 construct: whole, on cells
Described as above.

Test [4] concerns the target T1, cynomolgus CXCR4. The test is described as follows: flow cytometry, transfected HEK293T cells, 100 nM, normalised to 12G5.
The target in test [5] is T2, hCXCR4-V196E. Described as above.
For test [6], the target named is T3, human CXCR4 (human, UniProt P61073 1-352). The test is described as follows: cell-based or functional assay.
The target in test [7] is T3, human CXCR4. The test is described as follows: [125I]-SDF-1 displacement, HEK293-CXCR4 membrane extracts, n = 3.
Test [8] concerns the target T4, recombinant human CD4 (ImmunoDiagnostics, cat#7001) (human, UniProt P01730 26-396, limits assumed).
T4 construct: Bought recombinant protein; also called biotinylated CD4
The test is described as follows: phage ELISA on coated recombinant human CD4, monoclonal phage supernatant, anti-M13-HRP. (In general: An ELISA detects its analyte on a solid surface through an enzyme-linked reagent.)

In test [9] the target is T3, human CXCR4. The test is described as follows: cell-based or functional assay. This is another data set of the same source.
Test [10] addresses T3, human CXCR4. The test is described as follows: competition with 12G5 (competitor, 1 nM), Jurkat cells, flow cytometry.

B1: 03F11-25GS-281F12 (bispecific antibody, not shown: small tags and cut ends)
chain: EVQLVESGGGSVQPGGSLTLSCGTSGRTFNVMGWFRQAPGKEREFVAAVRWSSTGIYYTQYADSVKSRFTISRDNAKNTVYLEMNSLKPEDTAVYYCAADTYNSNPARWDGYDFRGQGTQVTVSSGGGGSGGGGSGGGGSGGGGSGGGGSEVQLVESGGGLVQAGDSLRLSCAASGRAFSRYAMGWFRQAPGKEREFVAAIGWGPSKTNYADSVKGRFTISRDNAKNTVYLQMNTLKPEDTAVYSCAAKFVNTDSTWSRSEMYTYWGQGTQVTVSS
Turning to B1, in test [1], the “IC50, MT-4 + NL4.3 (X4)” value turned out to be 9.2 nM; the “IC50, PBMC + BaL (R5)” value was 383 nM; the “IC50, PBMC + NL4.3 (X4)” value came to 8.7 nM; the “IC50, U87 + NL4.3 (X4)” value was above 3330 nM.

B2: Nanobody 15A1 (VHH)
VHH: EVQLVESGGGLVQAGGSLRLSCAASGRTFSRAAMGWFRQAPGKEREFVGCALSSAGSALTADSVKGRFTISRDNAKNMVYLQMNNLKPEDTAVYSCVAGGYCTRAGVYPYWGQGTQVTVSS
notes: also called 15A01
In the case of B2, the “% binding relative to hCXCR4” value in [2] was 107%; in test [3] it was 71.3%; in test [4] it was 78.9%; in test [5], 77.3%.

B3: Nanobody 281D4 (VHH)
VHH: EVQLVESGGGLVQAGGSLRLSCAASGGTFNNYAMGWFRRAPGKEREFVAAISRSGVRTGVSALYGDSVKDRFTISRDNAKNTLYLQMNKMKPEDTAVYTCAASAIGSGALRRFEYDSSGQGTQVTVSS
notes: Purified Nanobody
For orientation: pKi means −log10 of the Ki, conventionally taken in molar units. Read a low pKi as a large Ki. Take B3: in [2], the “% binding relative to hCXCR4” value was determined as 97%. In addition, in test [3], the “% binding relative to hCXCR4” value is 70.5%. Further, the “% binding relative to hCXCR4” value in test [4] turned out to be 85.9%. The “% binding relative to hCXCR4” value in test [5] was found to be 79.5%. Moreover, in test [6], the “IC50, HIV-1 CM237 (clade B) infectivity in PBMC” value (shortened to “IC50, HIV-1 CM237”) came out at 3.3 nM; the “IC50, HIV-1 NL4.3 (X4) infectivity in PBMC” value was found to be 1.2 nM; the “IC50, HIV-1 UG270 (clade D) infectivity in PBMC” value (shortened to “IC50, HIV-1 UG270”) stood at 7.8 nM; the “IC90, HIV-1 CM237 (clade B) infectivity in PBMC” value (shortened to “IC90, HIV-1 CM237”) came out at 10 nM. For the same molecule, in test [6], the “IC90, HIV-1 NL4.3 (X4) infectivity in PBMC” value came out at 3.8 nM and the “IC90, HIV-1 UG270 (clade D) infectivity in PBMC” value (shortened to “IC90, HIV-1 UG270”) turned out to be 27 nM. This molecule also gave a pKi in test [7] of 8.27.

B4: Nanobody 281E10 (VHH)
VHH: EVQLVESGGGLVQAGGSLRLSCKASGGTFNNYAMGWFRRAPGKEREFVAAITRSGVRSGVSAIYGDSVKDRFTISRDNVKNTLYLQMNTLKPEDTAVYTCAASAIGSGALRRFEYDYSGQGTQVTVSS
notes: Purified Nanobody
On to B4, for which, in test [6], the “IC50, HIV-1 CM237” value amounted to 0.67 nM; the “IC50, HIV-1 NL4.3 (X4) infectivity in PBMC” value was 1.2 nM; the “IC50, HIV-1 UG270” value is 1.8 nM; the “IC90, HIV-1 CM237” value was 4 nM. For the same molecule, in test [6], the “IC90, HIV-1 NL4.3 (X4) infectivity in PBMC” value was determined as 3.5 nM and the “IC90, HIV-1 UG270” value worked out at 7.7 nM. In addition, the negative logarithm of the Ki (pKi) in [7] was 9.21.

B5: Nanobody 281A6 (VHH)
VHH: EVQLVESGGGLVQTGGSLRLSCAASGGTFNNYAMGWFRRAPGKEREFVAAISRSGVRTGVSALYGDSVKDRFTISRDNAKNTLYLQMNKMKPEDTAVYTCAASAIGSGALRRFEYDSSGQGTQVTVSS
notes: Purified Nanobody
Turning to B5, in test [6], the “IC50, HIV-1 CM237” value was 9.9 nM; the “IC50, HIV-1 NL4.3 (X4) infectivity in PBMC” value is 2.5 nM; the “IC50, HIV-1 UG270” value is 11 nM; the “IC90, HIV-1 CM237” value amounted to 27 nM. Further, in [6], the “IC90, HIV-1 NL4.3 (X4) infectivity in PBMC” value stood at 9.1 nM and the “IC90, HIV-1 UG270” value was determined as 27 nM. For the same molecule, the pKi in [7] amounted to 8.63.

B6: Nanobody 281A5 (VHH)
VHH: EVQLVESGGGLVQAGGSLRLSCAASGRTFNNYAMGWFRRAPGKEREFVAAITRSGVRSGVSAIYGDSVKDRFTISRDNAKNTLYLQMNSLKPEDTAVYTCAASAIGSGALRRFEYDYSGQGTQVTVSS
notes: Purified Nanobody
As to B6, in test [6], the “IC50, HIV-1 CM237” value was 18 nM; the “IC50, HIV-1 NL4.3 (X4) infectivity in PBMC” value is 23 nM; the “IC50, HIV-1 UG270” value was determined as 4 nM; the “IC90, HIV-1 CM237” value came out at 49 nM. Further, in test [6], the “IC90, HIV-1 NL4.3 (X4) infectivity in PBMC” value worked out at 59.5 nM and the “IC90, HIV-1 UG270” value is 7.33 nM. For the same molecule, the pKi in [7] came to 8.12.

B7: Nanobody 01H12 (VHH)
VHH: EVQLVESGGGLVQAGGSLKLSCAASRSILDFNAMGWYRQAPGKQREWVTTIARAGATKYADSVKGRFSISRDNAKNTVYLQMSSLKPEDTATYYCNARVFDLPNDYWGQGTQVTVSS
notes: Anti-human CD4 Nanobody; not shown: C-terminal myc-His6 tag
Consider B7, for which, in test [8], the binding result is “binds”.

B8: 281F12-9GS-03F11 (bispecific antibody, not shown: small tags and cut ends)
chain: EVQLVESGGGLVQAGDSLRLSCAASGRAFSRYAMGWFRQAPGKEREFVAAIGWGPSKTNYADSVKGRFTISRDNAKNTVYLQMNTLKPEDTAVYSCAAKFVNTDSTWSRSEMYTYWGQGTQVTVSSGGGSGGGGSEVQLVESGGGSVQPGGSLTLSCGTSGRTFNVMGWFRQAPGKEREFVAAVRWSSTGIYYTQYADSVKSRFTISRDNAKNTVYLEMNSLKPEDTAVYYCAADTYNSNPARWDGYDFRGQGTQVTVSS
Turning to B8, in test [1], the “IC50, MT-4 + NL4.3 (X4)” value worked out at 0.2 nM; the “IC50, PBMC + NL4.3 (X4)” value worked out at 0.03 nM; the “IC50, U87 + NL4.3 (X4)” value turned out to be 0.53 nM.

B9: Nanobody 15G11 (VHH)
VHH: EVQLVESGGGLVQAGDSLRVSCAASGRTSSYAMAWFRQAPGKEREFVGTISRTNSRTKYADFVEGRFTISRDNAKSTLSLQMTSLKPEDTAVYYCAAKWTGNSYHDYTWSKVDEYNVWGQGTQVTVSS
Usually IC50 stands for the point on the concentration scale where inhibition reaches its midpoint. High values mean a need for much substance, low ones inhibition by little substance. With B9, the “% binding relative to hCXCR4” value in [2] stood at 95.1%; in test [3] it was 22.1%; in test [4] it was 96.1%; in [5], 39.3%. The “IC50, HIV1 neutralisation (NL4.3 in MT-4 cells)” value in test [9] turned out to be 17.7 nM. For the same molecule, the IC50 in test [10] stood at 6.2 nM.

B10: Nanobody 283B6 (VHH)
VHH: EVQLVASGGGLVQAGGSLRLSCAVSGTTFSVATLGWYRQAPGQQRALVADISSGGSTNYADSVRGRFTISRDNAKNLAYLQMNSLKPEDTAVYYCNARTSGWRTRSNYWGQGTQVTVSS
notes: Purified Nanobody
Turning to B10, in test [6], the “IC50, HIV-1 CM237” value was 2 nM; the “IC50, HIV-1 NL4.3 (X4) infectivity in PBMC” value amounted to 1.6 nM; the “IC50, HIV-1 UG270” value was 1.9 nM; the “IC90, HIV-1 CM237” value stood at 7.3 nM. In test [6], the “IC90, HIV-1 NL4.3 (X4) infectivity in PBMC” value came out at 7.3 nM and the “IC90, HIV-1 UG270” value stood at 6.4 nM. In addition, the pKi in [7] turned out to be 8.78.

B11: Nanobody 283E2 (VHH)
VHH: EVQLVESGGGLVQAGGSLRLSCAVSGTTFSVATLGWYRQAPGQQRALVADISSGGSTNYADSVRGRFTISRDNAKNLAYLQMNSLKPEDTAVYYCNARTSGWRTRSNYWGQGTQVTVSS
notes: Purified Nanobody
Take B11: in [6], the “IC50, HIV-1 CM237” value amounted to 3.3 nM; the “IC50, HIV-1 NL4.3 (X4) infectivity in PBMC” value came to 4.1 nM; the “IC50, HIV-1 UG270” value was 1.3 nM; the “IC90, HIV-1 CM237” value worked out at 17 nM. In [6], the “IC90, HIV-1 NL4.3 (X4) infectivity in PBMC” value worked out at 12 nM and the “IC90, HIV-1 UG270” value turned out to be 14 nM. In test [7], this molecule yielded a negative logarithm of the Ki (pKi) of 8.29.

B12: Nanobody 283F1 (VHH)
VHH: EVQLVESGGGLVQAGGSLRLSCVASVNIFGSIAMAWYRQAPGKQRNLVASISSGGRINYADSRKGRFTISRDNTKNTVHLQMNSLEPEDTAVYYCAAGRIGQRTLTFTPDYWGQGTQVTVSS
notes: Purified Nanobody
As to B12, in test [6], the “IC50, HIV-1 CM237” value was 1.2 nM; the “IC50, HIV-1 NL4.3 (X4) infectivity in PBMC” value amounted to 0.76 nM; the “IC50, HIV-1 UG270” value is 1 nM; the “IC90, HIV-1 CM237” value turned out to be 5.1 nM. For the same molecule, in test [6], the “IC90, HIV-1 NL4.3 (X4) infectivity in PBMC” value is 3.6 nM and the “IC90, HIV-1 UG270” value was 8.1 nM. In [7], the pKi is 7.93.

B13: 03F11-9GS-281F12 (bispecific antibody, not shown: small tags and cut ends)
chain: EVQLVESGGGSVQPGGSLTLSCGTSGRTFNVMGWFRQAPGKEREFVAAVRWSSTGIYYTQYADSVKSRFTISRDNAKNTVYLEMNSLKPEDTAVYYCAADTYNSNPARWDGYDFRGQGTQVTVSSGGGGSGGGGSEVQLVESGGGLVQAGDSLRLSCAASGRAFSRYAMGWFRQAPGKEREFVAAIGWGPSKTNYADSVKGRFTISRDNAKNTVYLQMNTLKPEDTAVYSCAAKFVNTDSTWSRSEMYTYWGQGTQVTVSS
For B13, in test [1], the “IC50, MT-4 + NL4.3 (X4)” value is 14.9 nM; the “IC50, PBMC + BaL (R5)” value is above 666 nM; the “IC50, PBMC + NL4.3 (X4)” value was 17 nM; the “IC50, U87 + NL4.3 (X4)” value is above 3330 nM.

B14: Nanobody 01E2 (VHH)
VHH: EVQLVESGGGLVQAGGSLRLSCAASGRTSASYSMGWFRQAPGKEREFVAAISWSGDETSYADSVKGRFTIARGNAKNTVYLQMNSLKSEDTAIYYCAGDRWWRPAGLQWDYWGQGTQVTVSS
notes: as for B7
For B14, in test [8], the binding result was “binds”.
